Test results as given in PubChem BioAssay AID1347120 (National Center for Advancing Translational Sciences (NCATS), 2019).
Several values for one entry are separate records, joined by “and”; a condition that tells them apart may be missing. Equal values may be shown once. The campaign covered roughly 390,000 compounds. About 930 (0.24%) were called active. The inconclusive results got no clear call from the source; some entries with a clear call stand among them for comparison. Calls follow the shape of the dose curve; as a rule, active = well fitted activation curve with a large enough effect; inconclusive = small, poorly fitted or top-dose-only effect; inactive = no such curve, though single readings can be large or run the other way. Potencies of inconclusive entries are doubtful fits and often do not repeat. Numbered stars: 1 amine (or outer) side, 2 acyl side, 3 side chain; on linkers, the order of the positions; unused ones are H or OH. Square brackets hold non-standard residues; d marks the D form. Peptide text beside a SMILES is read from it. X3 = CCC[C@@H](N[*:1])[C@H](C)C(=O)O[C@H](C(=O)[*:2])[C@@H](C)CC; X2 = CC(N[*:1])C(=O)C(C)(C)C(=O)[*:2]; NMeY = CN[C@@H](Cc1ccc(O)cc1)C(=O)O; NMeF = CN[C@@H](Cc1ccccc1)C(=O)O; NMeL = CN[C@@H](CC(C)C)C(=O)O; NMeV = CN[C@H](C(=O)O)C(C)C; NMeA = CN[C@@H](C)C(=O)O; 2Abz = Nc1ccccc1C(=O)O

assay: qHTS for Suppressors of FUS Proteinopathy: Primary screen using FUS-linked yeast assay; also: nearly all actives have a fitted effect of over 55% in size;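 as to growth rescue (activation): plate controls were DMSO vehicle for no effect and reference control for full effect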; settings: S. cerevisiae FUS-expressing, OD600, 24 h; Potency: growth rescue; growth rescue (activation): at 76.6 µM (top of the series)
Summary of the method: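 Steps: raffinose overnight preculture; dilution to OD 0.005 in 2% galactose minimal medium; compound addition (concentration series); 24hr at 30C, 99% humidity; absorbance read at 600 nm.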
Potency is read from the fitted curve at half-maximal effect; tags tell the direction and shape of the fitted curve.

Structure (SMILES) | Potency | growth rescue (activation)
Cc1ccc(S(=O)(=O)N2[C@H](CC(=O)c3ccc(Cl)c(Cl)c3)OC[C@@H]2C(C)C)cc1 | inconclusive: 25.1 µM [activator, single point] | –
COc1cccc(CNC(=O)CN2CCCc3ccccc32)c1 | – | inactive: 7.44%
CC(C)CC1C(=O)N(Cc2cn(CCC3OCCCO3)nn2)CCS(=O)(=O)N1Cc1ccc(-c2ccc(Cl)c(Cl)c2)cc1 (configuration not stated) | inconclusive: 25.1 µM [activator, single point] | –
COc1ccc(OCc2nnc3n2N=C(c2ccc(OC)cc2)CS3)cc1 | inconclusive: 22.4 µM [activator, single point] | –
COc1ccc([C@H]2[C@H](C(=O)OC(C)(C)C)N3N=Cc4ccccc4C3C23C(=O)c2ccccc2C3=O)c(OC)c1 (some centres not stated) | inconclusive: 31.6 µM [activator, single point] | –
Cc1ccccc1NC1=C(Cl)C(=O)OC1OC(=O)c1ccccc1C (configuration not stated) | – | inactive: 13.6%
COc1cc(Cl)c(NC(=O)CN(C)S(=O)(=O)c2ccc3[nH]c4c(c3c2)CCCC4)c(OC)c1 | inconclusive: 10 µM [activator, partial curve] | –
Cc1ccc(CNC(=O)c2cnn(-c3ccc(F)cc3F)c2C2CCN(C(=O)OC(C)(C)C)CC2)cc1 | inconclusive: 25.1 µM [activator, single point] | –
CC(=O)c1c(C)oc2ccc(N(C(=O)c3ccncc3)S(=O)(=O)c3ccc(F)cc3C)cc12 | inconclusive: 31.6 µM [activator, single point] | –
COc1ccc(N(CC(=O)N2CCN(c3ccc(F)cc3)CC2)S(=O)(=O)c2c(C)nn(C)c2C)cc1 | – | inactive: 39.8%
CCOc1ccc(C(C(=O)NCC2CCCO2)N(Cc2cccnc2)C(=O)c2snc(C(N)=O)c2N)cc1 (configuration not stated) | – | inactive: 12.7%
O=C(Nc1ccc2c(c1)OCCO2)C(c1ccccc1)n1c(=O)c(-c2cc3ccccc3[nH]2)nc2ccccc21 (configuration not stated) | inconclusive: 20 µM [activator, partial curve, poor fit] | –
Cc1ccc(S(=O)(=O)C(C#N)c2nc3ccccc3nc2N2CC(C)OC(C)C2)cc1C (configuration not stated) | inconclusive: 44.7 µM [activator, partial curve, poor fit] | –
CCC[C@H]1NC(=O)[C@H](C)N(C)C(=O)C(C)(C)C(=O)C(C)NC(=O)[C@H](Cc2ccc(OC)cc2)N(C)C(=O)[C@H](C(C)C)N(C)C(=O)CNC(=O)[C@H](CC(C)C)N(C)C(=O)CNC(=O)[C@H]([C@@H](C)CC)OC(=O)[C@H]1C (some centres not stated) (cyclo(G[NMeL]G[NMeV][NMeY](Me)[X2][NMeA][X3])) | inconclusive: 12.6 µM [activator, partial curve, poor fit] | –
Cn1cccc1CC(=O)N/N=C/c1ccc([N+](=O)[O-])cc1 | inconclusive: 28.2 µM [activator, partial curve] | –
COc1cc(OC)cc(C(=O)Nc2cccc(NC(C)=O)c2)c1 | – | inactive: -6.68%
Cc1cc(NS(=O)(=O)c2ccc(NC(=S)NC(=O)c3ccc(F)cc3)cc2)no1 | – | inactive: 5.69%
CC(=O)c1cc(CC(=O)N2CCc3c([nH]c4ccccc34)C2c2ccccn2)cs1 (configuration not stated) | inconclusive: 10 µM [activator, partial curve, poor fit] | –
CS(=O)(=O)N1CCN(c2ccccc2NC(=O)CSc2ccc(Cl)cc2)CC1 | inconclusive: 50.1 µM [activator, single point] | –

Structure (SMILES) | Potency | growth rescue (activation)
COc1ccccc1NC(=O)C(C)OC(=O)c1cc2ccccc2[nH]1 (configuration not stated) | – | inactive: -6.57%
CN1CCc2c(sc(NC(=O)c3ccc(S(=O)(=O)N4CCCC4)cc3)c2C(N)=O)C1 | inconclusive: 31.6 µM [activator, single point] | –
CCCCCCCCN1C(=O)[C@H](CC(=O)N2CCCC2)C[C@@]2(C(=O)OCC)CCCC=C12 | inconclusive: 12.6 µM [activator, partial curve, poor fit] | –
COc1ccc(CCN2C(=O)CC(Nc3ccc(N4CCOCC4)cc3)C2=O)cc1OC (configuration not stated) | inconclusive: 28.2 µM [activator, single point] | –
C=CC[C@@H](CC(=O)OC(C)(C)C)C(=O)OC[C@H]1CCCN1C(=O)[C@@H](CC=C)CC(=O)N[C@H](CO)Cc1ccccc1 | inconclusive: 14.1 µM [activator, partial curve] | –
O=C(COc1ccccc1)NNC(=S)NC(=O)c1ccc(Cl)cc1Cl | – | inactive: 32%
CCN1CCc2nc(SCC(=O)Nc3ccc(OC)cc3)c(C#N)cc2C1 | inconclusive: 50.1 µM [activator, single point] | –
Cc1cccc(N=C2Sc3nc4c(C)c(C)ccc4cc3CN2CCN2CCOCC2)c1 | inconclusive: 31.6 µM [activator, single point] | –
CC(=O)Nc1ccc(S(=O)(=O)NCc2ccc3c(c2)cc(C)n3C)cc1 | inconclusive: 35.5 µM [activator, single point] | –
Cc1nn(-c2ccccc2)c2c1cc1c(=O)[nH]c(=O)nc-1n2-c1cccc(C(F)(F)F)c1 | – | inactive: -18%
O=S(=O)(Nc1ccc(-c2ccc(N3CCCCCC3)nn2)cc1)c1ccc(C(F)(F)F)cc1 | – | inactive: -0.0843%
NC(Cc1ccc(Cl)cc1)c1csc(NC(=O)NCC2CCCCC2)n1 (configuration not stated) | active: 25.1 µM | –
Cc1ccc(-n2nc3c(=O)n(CCCC(=O)NCc4ccc(F)cc4)nc(C)c3c2C)cc1 | inconclusive: 31.6 µM [activator, single point] and inconclusive: 25.1 µM [activator, partial curve, poor fit] | –
COCc1cn(-c2ccc3c(c2)[C@]2(CC(=O)N(C)C2c2ccccc2)C(=O)N3CC(C)C)nn1 (some centres not stated) | – | inactive: 5.37%
Cc1cccc(N2CCN(S(=O)(=O)c3ccc(F)c(C(=O)Nc4cccc(Cl)c4C)c3)CC2C)c1 (configuration not stated) | inconclusive: 7.08 µM [activator, partial curve, poor fit] | –
Cc1nc2cc(C(=O)NCc3ccc4c(c3)OCO4)ccc2n1-c1ccc(Br)cc1 | inconclusive: 35.5 µM [activator, partial curve, poor fit] | –
CC(C)(C)c1ccc(-c2nnc(SCC(=O)Nc3ccc(S(=O)(=O)Nc4nccs4)cc3)n2-c2ccc(Cl)cc2)cc1 | inconclusive: 31.6 µM [activator, partial curve, poor fit] | –
CCC/C=C/c1ccc(CN2C(C(C)C)C(=O)N(Cc3cn(Cc4ccco4)nn3)CCS2(=O)=O)cc1 (configuration not stated) | inconclusive: 22.4 µM [activator, single point] | –
CC(=O)Nc1ccc(NC(=O)C2Cc3c(-c4cccc(C(C)=O)c4)ccnc3O2)cc1 (configuration not stated) | – | inactive: 6.85%

Structure (SMILES) | Potency | growth rescue (activation)
C[C@H](CO)N1C[C@H](C)[C@@H](CN(C)C(=O)NC2CCCCC2)Oc2ccc(NC(=O)Nc3ccc(C(F)(F)F)cc3)cc2C1=O | inconclusive: 31.6 µM [activator, single point] | –
Cc1cccc(N2CCN(C(c3ccc(F)cc3)c3nnc(-c4ccccc4)o3)CC2)c1C (configuration not stated) | inconclusive: 20 µM [activator, partial curve, poor fit] | –
CC(C)(C)c1ccc(C(=O)N2CCC2(C)C(=O)Nc2cccc3ccccc23)cc1 (configuration not stated) | inconclusive: 28.2 µM [activator, partial curve, poor fit] | –
COc1ccc2c(c1)nc(-c1cccc(Br)c1)c(=O)n2C(c1ccccn1)c1nc2ccccc2[nH]1 (configuration not stated) | inconclusive: 3.55 µM [activator, full curve, poor fit] | –
CC(=O)CC[C@@H]1CC[C@]2(CCCN(S(=O)(=O)c3ccccc3)C2)O1 | – | inactive: -11.6%
COc1ccc(C(=O)NC(=S)NNC(=O)c2ccco2)cc1 | – | inactive: 18.2%
CC(C)C[C@@H]1NC(=O)[C@H](Cc2ccccc2)N(C)C(=O)[C@H](C)NC(=O)c2ccccc2NC(=O)[C@H](Cc2ccc(O)cc2)N(C)C1=O (cyclo([2Abz]A[NMeF]L[NMeY])) | inconclusive: 10 µM [activator, partial curve] | –
CCSc1nnc(NC(=O)CCn2c(=O)oc3ccccc32)s1 | – | inactive: -34.7%
O=C(Nc1ccccc1)OCCN1CCCC12CCC(c1ccccc1)CC2 (configuration not stated) | inconclusive: 25.1 µM [activator, single point] | –
COC(=O)[C@]12CCCCC=C1N(CCC1=CCCCC1)C(=O)[C@H](CC(=O)NCC1CCCCC1)C2 | inconclusive: 31.6 µM [activator, single point] | –
COc1ccc(S(=O)(=O)N2CCN(C(=O)CCC3CCCC3)CC2)cc1 | inconclusive: 12.6 µM [activator, partial curve] | –
CCCC12CN3CC(C)(CN(C1)C3c1ccc(CC)cc1)C2=O (configuration not stated) | – | inactive: -8.09%
C/C=C/c1ccc(OCC(=O)Nc2cc(S(=O)(=O)N3CCOCC3)ccc2N2CCCC2)c(OC)c1 | inconclusive: 20 µM [activator, partial curve] | –
Cc1cc(C(C)(C)C)cc(C)c1S(=O)(=O)N1CC(=O)Nc2ccccc21 | inconclusive: 31.6 µM [activator, partial curve, poor fit] | –
O=C(O)CCNc1cc(N2CCN(C(=O)c3ccco3)CC2)c2noc3c2c1C(=O)c1ccccc1-3 | inconclusive: 28.2 µM [activator, partial curve] | –
O=C1CC(c2ccc(Cl)cc2)CC(=O)C1CS(=O)(=O)c1ccccc1 (configuration not stated) | inconclusive: 4.47 µM [activator, full curve] | –
N#Cc1c(SCC(=O)O)nc(-c2ccccc2)c2c1CCCC2 | – | inactive: 2.05%
CCCCCOc1ccc(C2C(C(=O)c3ccc(C)o3)=C(O)C(=O)N2c2cc(C)on2)cc1 (configuration not stated) | inconclusive: 31.6 µM [activator, partial curve, poor fit] | –
CNC(=O)CSc1nc2cc(S(=O)(=O)Nc3ccccc3OC)ccc2o1 | inconclusive: 5.01 µM [activator, single point] | –
